Reference: article PMC9911399, “Two distinct binding modes provide the RNA-binding protein RbFox with extraordinary sequence specificity”
Numbering of substitutions follows the chain as printed; changes in the protein carry UniProt numbers. The list shows a part of the results.

T1: RBFOX1 RRM RbFoxmut (Fox-RRM*) (Homo sapiens, UniProt Q9NWB1 109-208, R118D;E147R;N151S;E152T)
T1 sequence: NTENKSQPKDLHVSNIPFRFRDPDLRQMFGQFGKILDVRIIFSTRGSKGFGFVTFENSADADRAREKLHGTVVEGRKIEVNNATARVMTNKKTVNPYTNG

B1: AGGGGCG (DNA:RNA)
RNA: GGGAGACCGGAAUUCAGAUUGUCCAGGGGCGUUAAAUCCCGUCGUAGCCACCA
DNA 1: CAATCTGAATTCCGGTCTCCC
DNA 2: TGGTGGCTACGACGGGATT
B2: UUAAUGC (DNA:RNA)
RNA: GGGAGACCGGAAUUCAGAUUGUCCUUAAUGCUUAAAUCCCGUCGUAGCCACCA
DNA 1: CAATCTGAATTCCGGTCTCCC
DNA 2: TGGTGGCTACGACGGGATT
B3: GAAUUAU (DNA:RNA)
RNA: B2 RNA with U25G, U26A, A28U, G30A, C31U
DNA 1: CAATCTGAATTCCGGTCTCCC
DNA 2: TGGTGGCTACGACGGGATT
B4: CUACGAU (DNA:RNA)
RNA: B2 RNA with U25C, A28C, U29G, G30A, C31U
DNA 1: CAATCTGAATTCCGGTCTCCC
DNA 2: TGGTGGCTACGACGGGATT
B5: GUACCGU (DNA:RNA)
RNA: B2 RNA with U25G, A28C, U29C, C31U
DNA 1: CAATCTGAATTCCGGTCTCCC
DNA 2: TGGTGGCTACGACGGGATT
B6: GAAUAGA (DNA:RNA)
RNA: B2 RNA with U25G, U26A, A28U, U29A, C31A
DNA 1: CAATCTGAATTCCGGTCTCCC
DNA 2: TGGTGGCTACGACGGGATT
B7: GAUCCCA (DNA:RNA)
RNA: B1 RNA with A25G, G26A, G27U, G28C, G29C, G31A
DNA 1: CAATCTGAATTCCGGTCTCCC
DNA 2: TGGTGGCTACGACGGGATT
B8: GCUAGGU (DNA:RNA)
RNA: B2 RNA with U25G, U26C, A27U, U29G, C31U
DNA 1: CAATCTGAATTCCGGTCTCCC
DNA 2: TGGTGGCTACGACGGGATT
B9: ACUAAUC (DNA:RNA)
RNA: B2 RNA with U25A, U26C, A27U, U29A, G30U
DNA 1: CAATCTGAATTCCGGTCTCCC
DNA 2: TGGTGGCTACGACGGGATT
B10: GCCUCGC (DNA:RNA)
RNA: B2 RNA with U25G, U26C, A27C, A28U, U29C
DNA 1: CAATCTGAATTCCGGTCTCCC
DNA 2: TGGTGGCTACGACGGGATT
B11: GUUCGCC (DNA:RNA)
RNA: B1 RNA with A25G, G26U, G27U, G28C, G31C
DNA 1: CAATCTGAATTCCGGTCTCCC
DNA 2: TGGTGGCTACGACGGGATT
B12: UGCGCCU (DNA:RNA)
RNA: B1 RNA with A25U, G27C, G29C, G31U
DNA 1: CAATCTGAATTCCGGTCTCCC
DNA 2: TGGTGGCTACGACGGGATT
B13: ACUAUAU (DNA:RNA)
RNA: B2 RNA with U25A, U26C, A27U, G30A, C31U
DNA 1: CAATCTGAATTCCGGTCTCCC
DNA 2: TGGTGGCTACGACGGGATT
B14: AGCCGAU (DNA:RNA)
RNA: B1 RNA with G27C, G28C, C30A, G31U
DNA 1: CAATCTGAATTCCGGTCTCCC
DNA 2: TGGTGGCTACGACGGGATT
B15: AAUUACU (DNA:RNA)
RNA: B1 RNA with G26A, G27U, G28U, G29A, G31U
DNA 1: CAATCTGAATTCCGGTCTCCC
DNA 2: TGGTGGCTACGACGGGATT
B16: GUUAACU (DNA:RNA)
RNA: B2 RNA with U25G, A27U, U29A, G30C, C31U
DNA 1: CAATCTGAATTCCGGTCTCCC
DNA 2: TGGTGGCTACGACGGGATT
B17: UUAGACC (DNA:RNA)
RNA: B2 RNA with A28G, U29A, G30C
DNA 1: CAATCTGAATTCCGGTCTCCC
DNA 2: TGGTGGCTACGACGGGATT
B18: CACGCGU (DNA:RNA)
RNA: B1 RNA with A25C, G26A, G27C, G29C, C30G, G31U
DNA 1: CAATCTGAATTCCGGTCTCCC
DNA 2: TGGTGGCTACGACGGGATT
B19: GCACAGA (DNA:RNA)
RNA: B2 RNA with U25G, U26C, A28C, U29A, C31A
DNA 1: CAATCTGAATTCCGGTCTCCC
DNA 2: TGGTGGCTACGACGGGATT
B20: CCCUGCG (DNA:RNA)
RNA: B1 RNA with A25C, G26C, G27C, G28U
DNA 1: CAATCTGAATTCCGGTCTCCC
DNA 2: TGGTGGCTACGACGGGATT
B21: GGUAGCU (DNA:RNA)
RNA: B1 RNA with A25G, G27U, G28A, G31U
DNA 1: CAATCTGAATTCCGGTCTCCC
DNA 2: TGGTGGCTACGACGGGATT
B22: GGGAGGU (DNA:RNA)
RNA: B1 RNA with A25G, G28A, C30G, G31U
DNA 1: CAATCTGAATTCCGGTCTCCC
DNA 2: TGGTGGCTACGACGGGATT
B23: UUCGAGU (DNA:RNA)
RNA: B2 RNA with A27C, A28G, U29A, C31U
DNA 1: CAATCTGAATTCCGGTCTCCC
DNA 2: TGGTGGCTACGACGGGATT
B24: CUACAUC (DNA:RNA)
RNA: B2 RNA with U25C, A28C, U29A, G30U
DNA 1: CAATCTGAATTCCGGTCTCCC
DNA 2: TGGTGGCTACGACGGGATT
B25: GAGUUAA (DNA:RNA)
RNA: B1 RNA with A25G, G26A, G28U, G29U, C30A, G31A
DNA 1: CAATCTGAATTCCGGTCTCCC
DNA 2: TGGTGGCTACGACGGGATT
B26: CGCGCUC (DNA:RNA)
RNA: B1 RNA with A25C, G27C, G29C, C30U, G31C
DNA 1: CAATCTGAATTCCGGTCTCCC
DNA 2: TGGTGGCTACGACGGGATT
B27: CGAGGGC (DNA:RNA)
RNA: B1 RNA with A25C, G27A, C30G, G31C
DNA 1: CAATCTGAATTCCGGTCTCCC
DNA 2: TGGTGGCTACGACGGGATT
B28: CAAUGUA (DNA:RNA)
RNA: B1 RNA with A25C, G26A, G27A, G28U, C30U, G31A
DNA 1: CAATCTGAATTCCGGTCTCCC
DNA 2: TGGTGGCTACGACGGGATT
B29: UCCUGUA (DNA:RNA)
RNA: B1 RNA with A25U, G26C, G27C, G28U, C30U, G31A
DNA 1: CAATCTGAATTCCGGTCTCCC
DNA 2: TGGTGGCTACGACGGGATT
B30: AUAGCUU (DNA:RNA)
RNA: B1 RNA with G26U, G27A, G29C, C30U, G31U
DNA 1: CAATCTGAATTCCGGTCTCCC
DNA 2: TGGTGGCTACGACGGGATT
B31: GGGAAGG (DNA:RNA)
RNA: B1 RNA with A25G, G28A, G29A, C30G
DNA 1: CAATCTGAATTCCGGTCTCCC
DNA 2: TGGTGGCTACGACGGGATT

molecular target: T1, RBFOX1 RRM RbFoxmut (Fox-RRM*); experiment: EMSA; HiTS-Eq, 1 nM pool, 10 min; buffer printed only for the single-RNA assays: 10 mM Tris pH 7.5, 150 mM NaCl, 3.4 mM EDTA, 0.001% NP-40, 30 C; conditions: tags: His6 N-terminal (pET28a); label: 5' 32P
Method in brief: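 Purified wild-type or mutant RbFox RRM at increasing concentrations was equilibrated with 1 nM of 5′-radiolabelled RNA carrying 7 randomized nucleotides for 10 min in 50 µL. Unbound RNA was separated by 8% native PAGE and sequenced. Relative association constants came from read-count changes of each RNA species compared with the control reaction, normalised to the cognate motif.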

Row | Binder | binding signal
1 | B1 | 0.18 KA relative to UGCAUGU
2 | B2 | 0.118 KA relative to UGCAUGU
3 | B3 | 0.115 KA relative to UGCAUGU
4 | B4 | 0.0551 KA relative to UGCAUGU
5 | B5 | 0.12 KA relative to UGCAUGU
6 | B6 | 0.121 KA relative to UGCAUGU
7 | B7 | 0.0816 KA relative to UGCAUGU
8 | B8 | 0.127 KA relative to UGCAUGU
9 | B9 | 0.0671 KA relative to UGCAUGU
10 | B10 | 0.156 KA relative to UGCAUGU
11 | B11 | 0.134 KA relative to UGCAUGU
12 | B12 | 0.0952 KA relative to UGCAUGU
13 | B13 | 0.123 KA relative to UGCAUGU
14 | B14 | 0.087 KA relative to UGCAUGU
15 | B15 | 0.111 KA relative to UGCAUGU
16 | B16 | 0.0977 KA relative to UGCAUGU

Row | Binder | binding signal
17 | B17 | 0.0636 KA relative to UGCAUGU
18 | B18 | 0.131 KA relative to UGCAUGU
19 | B19 | 0.0953 KA relative to UGCAUGU
20 | B20 | 0.123 KA relative to UGCAUGU
21 | B21 | 0.0558 KA relative to UGCAUGU
22 | B22 | 0.0973 KA relative to UGCAUGU
23 | B23 | 0.133 KA relative to UGCAUGU
24 | B24 | 0.0565 KA relative to UGCAUGU
25 | B25 | 0.0978 KA relative to UGCAUGU
26 | B26 | 0.0689 KA relative to UGCAUGU
27 | B27 | 0.0676 KA relative to UGCAUGU
28 | B28 | 0.134 KA relative to UGCAUGU
29 | B29 | 0.152 KA relative to UGCAUGU
30 | B30 | 0.0942 KA relative to UGCAUGU
31 | B31 | 0.0684 KA relative to UGCAUGU
